# This is one part of the list.
# B1: rEtpA (Escherichia coli) (protein)
# chain: MNRIYKLKFDKRRNELVVVSEITTGVGNAKATGSVEGEKSPRRGVRAMALSLLSGMMIMAHPAMSANLPTGGQIVAGSGSIQTPSGNQMNIHQNSQNMVANWNSFDIGKGNTVQFDQPSSSAVALNRVVGGGESQIMGNLKANGQVFLVNPNGVLFGEGASVSTSGFVASTRDIKNDDFMNRRYTFSGGQKAGAAIVNQGELTTNAGGYIVLAADRVSNSGTIRTPGGKTVLAASERITLQLDNGGLMSVQVTGDVVNALVENRGLVSARDGQVYLTALGRGMLMNTVLNVSGVVEASGMHRQDGNIVLDGGDSGVVHLSGTLQADNASGQGGKVVVQGKNILLDKGSNITATGGQGGGEVYVGGGWQGKDSNIRNADKVVMQGGARIDVSATQQGNGGTAVLWSDSYTNFHGQISAKGGETGGNGGRVETSSHGNLQAFGTVSASAKKGKAGNWLLDSADITIVNGSNVSKTETTQSPPHTQFAPTAAGSAVSNTSINNRLNNGTSVTILTHRTRTGTAQGGNITVNAAINKSNGSDVNLTLQAGGNITVNNSITSTEGKLNVNLSGARTSNGSITISNNANITTNGGDITVGTTNTSNRVNISINNTTLNASNGNIQLTGTGTDSGILFAGNNRLTASNIALTGNSTSGNAINLTGTATLNATNNITLTGSSTSGNAINLKGNNTLTASNITLTGESTSGNAINLTDTTGTTTLNATNNITMQGTRVQIKHSNITAGNFALNATVAGSEISNTTLTATNNINLAAKTNSASSGVYLKDARITSTNGSITANGTATANGKATHLDGNVTLNASNGRIKLTGNGHGSASGILFAGNNRLTASNIALTGNSTSGNAINLTGTATLNATNDITLTGSSTSGNAINLTGTATLNATNNITLTGSSTSGNAINLKGNNTLTASNITLTGESTSGNAINLTDTTGTTTLNATNNITMQGTRVQIKHSNITAGNFALNATVAGSEISNTTLTATNNINLAAKTNSASSGVYLKDARITSTNGSITANGTATANGKATHLDGNVTLNASNGRIKLTGNGHGSASGILFAGNNRLTASNIALTGNSTSGNAINLTGTATLNATNDITLTGSSTSGNAINLTGTATLNATNNITLTGSSTSGNAINLKGNNTLTASNITLTGESTSGNAINLTDTTGTTTLNATNNITMQGTRVQIKHSNITAGNFALNATVAGSEISNTTLTATNNINLAAKTNSASSGVYLKDARITSTNGSITANGTATANGKATHLDGNVTLNASNGRIKLTGNGHGSASGILFAGNNRLTASNIALTGNSTSGNAINLTGTATLNATNDITLTGSSTSGNAINLTGTATLNATNNITLTGSSTSGNAINLKGNNTLTASNITLTGESTSGNAINLTDTTGTTTLNATNNITMQGTRVQIKHSNITAGNFALNATVAGSEISNTTLTATNNINLAAKTNSASSGVYLKDARITSTNGSITTNGTATANGKATHLDGNVTLNASNGRIKLTGNGHGSASGILFAGNNRLTASNIALTGNSTSGNAINLTGTATLNATNDITLTGSSTSGNAINLTGTATLNATNNITLTGSSTSGNAINLKGNNTLTASNITLTGESTSGNAINLTDTTGTTTLNATNNITMQGTRVQIKHSNITAGNFALNATVAGSEISNTTLTATNNINLAAKTNSASSGVYLKDARITSTNGSITANGTAPANDNATYLDGNVTLNASNGSIKLTGNGNGSTSGILFAGNNTLTASNITLTGNSEVYWQKLGPEQKLISEEDLNSAVDHHHHHH
# What was measured:
# Test in all cases: glycan array binding signal (z-score within array); higher = stronger binding
# Settings in all cases: glycan notation: IUPAC condensed, linker removed
# [1] = target: Neu5Ac(a2-3)Gal(b1-3)]Neu5Ac(a2-3)Gal(b1-4)]GlcNAc
# Procedure, shortened: (§1)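 Glycan array data came from 3228 arrays in the Consortium for Functional Glycomics database, and only arrays with an available protein sequence were kept. Glycan names were put into IUPAC-condensed notation, and columns mapping to the same glycan were averaged. The binding signal is a within-array Z-score, averaged across arrays of one protein sequence run at different concentrations or buffers and across linkers. A negative Z-score can be read as non-binding.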
# [2] = target: Neu5Ac(a2-3)Gal(b1-4)Glc
# Procedure, shortened: as §1
# [3] = target: Neu5Ac(a2-3)Gal(b1-4)GlcNAc
# Procedure, shortened: as §1
# [4] = target: Neu5Ac(a2-3)Gal(b1-4)GlcNAc(b1-2)Man
# Procedure, shortened: as §1
# [5] = target: Neu5Ac(a2-3)Gal(b1-4)GlcNAc(b1-2)Man(a1-3)[GlcNAc(b1-4)][Neu5Ac(a2-3)Gal(b1-4)GlcNAc(b1-2)Man(a1-6)]Man(b1-4)GlcNAc(b1-4)GlcNAc
# Procedure, shortened: as §1
# [6] = target: Neu5Ac(a2-3)Gal(b1-4)GlcNAc(b1-2)Man(a1-3)[Neu5Ac(a2-3)Gal(b1-4)GlcNAc(b1-2)Man(a1-6)]Man(b1-4)GlcNAc(b1-4)GlcNAc
# Procedure, shortened: as §1
# [7] = target: Neu5Ac(a2-3)Gal(b1-4)GlcNAc(b1-2)Man(a1-3)[Neu5Ac(a2-3)Gal(b1-4)GlcNAc(b1-2)Man(a1-6)]Man(b1-4)GlcNAc(b1-4)[Fuc(a1-6)]GlcNAc
# Procedure, shortened: as §1
# [8] = target: Neu5Ac(a2-3)Gal(b1-4)GlcNAc(b1-2)Man(a1-3)[Neu5Ac(a2-6)Gal(b1-4)GlcNAc(b1-2)Man(a1-6)]Man(b1-4)GlcNAc(b1-4)GlcNAc
# Procedure, shortened: as §1
# [9] = target: Neu5Ac(a2-3)Gal(b1-4)GlcNAc(b1-2)[Neu5Ac(a2-3)Gal(b1-4)GlcNAc(b1-4)]Man(a1-3)[GlcNAc(b1-4)][Neu5Ac(a2-3)Gal(b1-4)GlcNAc(b1-2)[Neu5Ac(a2-3)Gal(b1-4)GlcNAc(b1-6)]Man(a1-6)]Man(b1-4)GlcNAc(b1-4)GlcNAc
# Procedure, shortened: as §1
# [10] = target: Neu5Ac(a2-3)Gal(b1-4)GlcNAc(b1-2)[Neu5Ac(a2-3)Gal(b1-4)GlcNAc(b1-4)]Man(a1-3)[GlcNAc(b1-4)][Neu5Ac(a2-3)Gal(b1-4)GlcNAc(b1-4)Man(a1-6)]Man(b1-4)GlcNAc(b1-4)GlcNAc
# Procedure, shortened: as §1
# [11] = target: Neu5Ac(a2-3)Gal(b1-4)GlcNAc(b1-2)[Neu5Ac(a2-3)Gal(b1-4)GlcNAc(b1-6)]Man(a1-6)[Neu5Ac(a2-3)Gal(b1-4)GlcNAc(b1-2)Man(a1-3)][GlcNAc(b1-4)]Man(b1-4)GlcNAc(b1-4)GlcNAc
# Procedure, shortened: as §1
# [12] = target: Neu5Ac(a2-3)Gal(b1-4)GlcNAc(b1-3)Gal
# Procedure, shortened: as §1
# [13] = target: Neu5Ac(a2-3)Gal(b1-4)GlcNAc(b1-3)Gal(b1-3)GlcNAc
# Procedure, shortened: as §1
# [14] = target: Neu5Ac(a2-3)Gal(b1-4)GlcNAc(b1-3)Gal(b1-4)GlcNAc
# Procedure, shortened: as §1
# [15] = target: Neu5Ac(a2-3)Gal(b1-4)GlcNAc(b1-3)Gal(b1-4)GlcNAc(b1-2)Man(a1-3)[Neu5Ac(a2-3)Gal(b1-4)GlcNAc(b1-3)Gal(b1-4)GlcNAc(b1-2)Man(a1-6)]Man(b1-4)GlcNAc(b1-4)GlcNAc
# Procedure, shortened: as §1
# [16] = target: Neu5Ac(a2-3)Gal(b1-4)GlcNAc(b1-3)Gal(b1-4)GlcNAc(b1-3)Gal(b1-4)GlcNAc
# Procedure, shortened: as §1
# [17] = target: Neu5Ac(a2-3)Gal(b1-4)GlcNAc(b1-3)Gal(b1-4)GlcNAc(b1-3)Gal(b1-4)GlcNAc(b1-2)Man(a1-3)[Neu5Ac(a2-3)Gal(b1-4)GlcNAc(b1-3)Gal(b1-4)GlcNAc(b1-3)Gal(b1-4)GlcNAc(b1-2)Man(a1-6)]GalNAc
# Procedure, shortened: as §1
# [18] = target: Neu5Ac(a2-3)Gal(b1-4)GlcNAc(b1-3)Gal(b1-4)GlcNAc(b1-3)GalNAc
# Procedure, shortened: as §1
# [19] = target: Neu5Ac(a2-3)Gal(b1-4)GlcNAc(b1-3)Gal(b1-4)GlcNAc(b1-3)[Neu5Ac(a2-3)Gal(b1-4)GlcNAc(b1-3)Gal(b1-4)GlcNAc(b1-6)]GalNAc
# Procedure, shortened: as §1
# [20] = target: Neu5Ac(a2-3)Gal(b1-4)GlcNAc(b1-3)Gal(b1-4)GlcNAc(b1-6)[Gal(b1-3)]GalNAc
# Procedure, shortened: as §1
# [21] = target: Neu5Ac(a2-3)Gal(b1-4)GlcNAc(b1-3)Gal(b1-4)[Fuc(a1-3)]GlcNAc
# Procedure, shortened: as §1
# [22] = target: Neu5Ac(a2-3)Gal(b1-4)GlcNAc(b1-3)GalNAc
# Procedure, shortened: as §1
# [23] = target: Neu5Ac(a2-3)Gal(b1-4)GlcNAc(b1-3)[Neu5Ac(a2-3)Gal(b1-4)GlcNAc(b1-6)]GalNAc
# Procedure, shortened: as §1
binder,measurement,setting,value
B1,glycan array binding signal (z-score),[1],-0.416
same,glycan array binding signal (z-score),[2],1.63
same,glycan array binding signal (z-score),[3],-0.299
same,glycan array binding signal (z-score),[4],0.347
same,glycan array binding signal (z-score),[5],0.086
same,glycan array binding signal (z-score),[6],0.268
same,glycan array binding signal (z-score),[7],-0.371
same,glycan array binding signal (z-score),[8],-0.305
same,glycan array binding signal (z-score),[9],-0.373
same,glycan array binding signal (z-score),[10],-0.198
same,glycan array binding signal (z-score),[11],-0.327
same,glycan array binding signal (z-score),[12],0.019
same,glycan array binding signal (z-score),[13],-0.414
same,glycan array binding signal (z-score),[14],0.276
same,glycan array binding signal (z-score),[15],-0.408
same,glycan array binding signal (z-score),[16],-0.401
same,glycan array binding signal (z-score),[17],-0.151
same,glycan array binding signal (z-score),[18],-0.38
same,glycan array binding signal (z-score),[19],-0.371
same,glycan array binding signal (z-score),[20],-0.423
same,glycan array binding signal (z-score),[21],-0.434
same,glycan array binding signal (z-score),[22],0.379
same,glycan array binding signal (z-score),[23],-0.336

# Source: the supplement of paper PMC8728848
